# Laboratory results published in publication PMC4336329 (PLoS ONE, 2015).
# About 14,000 (4.5%) of roughly 310,000 compounds showed an effect of 50% or more. Effects have a minus sign here. Some of the results follow.
# Target: human ether-à-go-go-related gene (hERG) potassium channel (human, UniProt Q12809)
# Assay: primary screen, population patch clamp on CHO cells stably expressing hERG
# 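Also: peak tail current of the secondary pulse compared with the same well before compound.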
# Chain of human ether-à-go-go-related gene (hERG) potassium channel (Q12809 whole entry, looked up): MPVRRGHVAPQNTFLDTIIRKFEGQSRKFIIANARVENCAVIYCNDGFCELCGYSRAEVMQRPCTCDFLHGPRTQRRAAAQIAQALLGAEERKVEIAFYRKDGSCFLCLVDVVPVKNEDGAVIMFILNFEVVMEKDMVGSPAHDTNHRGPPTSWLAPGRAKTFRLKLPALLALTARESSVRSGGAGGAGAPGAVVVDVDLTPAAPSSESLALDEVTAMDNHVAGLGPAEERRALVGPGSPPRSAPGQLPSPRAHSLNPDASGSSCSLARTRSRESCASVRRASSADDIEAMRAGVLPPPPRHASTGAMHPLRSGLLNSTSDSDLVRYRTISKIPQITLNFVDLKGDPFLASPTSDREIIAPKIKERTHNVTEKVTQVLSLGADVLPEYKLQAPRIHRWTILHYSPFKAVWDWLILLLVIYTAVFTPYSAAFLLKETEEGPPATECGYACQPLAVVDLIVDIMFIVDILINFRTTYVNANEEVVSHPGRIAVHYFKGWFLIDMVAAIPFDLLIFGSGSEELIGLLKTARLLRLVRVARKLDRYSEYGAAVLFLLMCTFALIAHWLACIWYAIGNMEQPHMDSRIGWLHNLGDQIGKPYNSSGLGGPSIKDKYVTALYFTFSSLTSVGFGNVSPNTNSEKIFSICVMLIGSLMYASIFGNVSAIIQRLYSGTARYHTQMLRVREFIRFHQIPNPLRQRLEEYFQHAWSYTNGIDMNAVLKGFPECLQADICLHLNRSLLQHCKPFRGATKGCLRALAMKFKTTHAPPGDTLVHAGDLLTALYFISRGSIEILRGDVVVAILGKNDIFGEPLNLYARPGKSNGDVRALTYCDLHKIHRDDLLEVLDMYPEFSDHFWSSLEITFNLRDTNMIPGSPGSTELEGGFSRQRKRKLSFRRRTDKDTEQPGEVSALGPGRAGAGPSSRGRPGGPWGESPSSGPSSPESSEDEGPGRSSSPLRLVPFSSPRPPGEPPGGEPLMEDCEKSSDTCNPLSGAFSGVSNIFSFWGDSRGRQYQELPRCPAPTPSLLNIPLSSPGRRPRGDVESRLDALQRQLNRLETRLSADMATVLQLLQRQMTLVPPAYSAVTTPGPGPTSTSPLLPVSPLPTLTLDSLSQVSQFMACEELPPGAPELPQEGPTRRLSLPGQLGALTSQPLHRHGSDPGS
row,SMILES,"hERG current change (%, negative = inhibition) at 10uM [%]"
1,CC(C)OCCCNC(=O)CN1C(=O)CC(C)(C)S(=O)(=O)c2ccccc21,15.2
2,Cc1cc(C)c2c(-n3cccc3)c(C(=O)NNS(=O)(=O)c3ccc(F)cc3)sc2n1,-32.1
3,O=C(Cc1ccccc1)Nc1ccc(S(=O)(=O)N2CCOCC2)cc1,6.77
4,COc1ccc(/C=C2\SC(=S)N(CC(=O)N3CCN(C)CC3)C2=O)cc1,4.95
5,CC(=O)c1ccc(S(=O)(=O)N2CCn3cccc3C2C)cc1 (centres unmarked),4.91
6,O=C(COC(=O)COc1ccccc1)NCc1ccccc1,9.26
7,COc1ccc([C@@H]2C[C@@H](c3ccccc3)Oc3c(C)ccc(C(C)C)c32)cc1,13.3
8,O=C(NCCc1nc2ccccc2[nH]1)/C(=C/c1ccco1)NC(=O)c1ccco1,-17.3
9,NC(=O)CSc1nnc(COc2ccccc2)n1CCc1ccccc1,-34.5
10,CCCSc1nc2cc(C)c(C)cc2n1CC(C)O (centres unmarked),-1.84
11,Cc1ccc(NC(=O)NNC(=O)c2ccc3c(c2)NC(=O)C(C)(C)O3)cc1,13.9
12,CCOc1ccc(C(=O)NCc2ccc3c(c2)OCO3)cc1OCC,6.63
13,O=C(CSc1nnc(CNC(=O)c2cccc(C(F)(F)F)c2)o1)NC1CCCCC1,10.5
14,CCn1c(CSCc2ccc(F)cc2)nnc1SCC(=O)NCc1ccccc1,-10.1
15,COc1ccc(CCNC(=O)C2CC3Cn4c(nc5cc6ccccc6cc54)C3N2C)cc1 (centres unmarked),-43.7
16,CC(C)c1ccc(C(=O)NC(=S)Nc2ccc3[nH]c(=O)[nH]c3c2)cc1,-4.31
17,CCNC(=O)n1cc(-n2cncn2)c(-c2ccc(Cl)cc2)n1,-44.9
18,O=C(Cn1cc(SCc2cccc(Cl)c2)c2ccccc21)N1CCOCC1,-33.1
19,COC(=O)/C=c1/s/c(=C(/C#N)C(=O)N2CCOCC2)n(-c2ccccc2)c1=O,15.3
20,CCOC(=O)c1c(C)[nH]c(C(=O)COC(=O)c2oc3ccc(OC)cc3c2C)c1C,6.45
21,CCN(CC)c1ccc(NC(=O)c2cnc3ccccn3c2=O)c(C)c1,4.51
22,CCOc1ccc(-n2c(SC(C)C(=O)OC)nc3c(c2=O)SCC3)cc1 (centres unmarked),-9.11
23,COc1cc(NC(=O)CN(C)C2CCCCC2)c(C)cc1[N+](=O)[O-],-17
